# Measurements published in PMC5075699.
# Columns and labels:
# [1] = tested on: nontransgenic mice; test: Pilot Morris water maze #1 (spatial learning and memory); details: 24-hour probe trial; 0.1 and 0.25 mpk
# [2] = tested on: nontransgenic (NTG) mice; test: Morris water maze #2, nontransgenic (NTG) mice; details: 2.5 mpk in 50% DMSO/50% PEG; vs vehicle
# [3] = tested on: nontransgenic mice; test: Contextual fear conditioning; details: 2.5 mpk single i.p. injection after foot shock; context test 24 hours later; first 4, second 4, total 8 min
# [4] = tested on: ATF4; test: ATF4 western blot, 293T cell lysate controls (ER stress induction); details: 293T cells treated to induce ER stress, vs untreated control lysate
Molecule,"memory for the location of the hidden platform, multiple outcome measures [1]",MWM training latency NTG Trial*ISRIB (linear mixed effects regression model) [2] [sec/day],freezing behavior vs vehicle (contextual fear memory) [3],ATF4 protein levels by western blotting [4]
O=C(COc1ccc(Cl)cc1)NC1CCC(NC(=O)COc2ccc(Cl)cc2)CC1 (centres unmarked) [ISRIB],No significant improvement in memory,0.3,did not observe a significant difference in freezing behavior,
"C/C=C(/C)C(=O)O[C@H]1C(C)=C2[C@H]([C@@H]1OC(=O)CCCCCCC)[C@@](C)(OC(C)=O)C[C@H](OC(=O)CCC)[C@@]1(O)[C@H]2OC(=O)[C@@]1(C)O [Thapsigargin, thapsigargin]",,,,elevated levels
tunicamycin,,,,elevated levels
